The least precise scores are not listed. Not listed are two conditions whose scores span a narrow range. In variant names, del marks residues removed and ins residues inserted between the two positions. For some assays here: The data file names ogerin without a concentration.
B1: GPR68, Q15743 (parent)
chain: MGNITADNSSMSCTIDHTIHQTLAPVVYVTVLVVGFPANCLSLYFGYLQIKARNELGVYLCNLTVADLFYICSLPFWLQYVLQHDNWSHGDLSCQVCGILLYENIYISVGFLCCISVDRYLAVAHPFRFHQFRTLKAAVGVSVVIWAKELLTSIYFLMHEEVIEDENQHRVCFEHYPIQAWQRAINYYRFLVGFLFPICLLLASYQGILRAVRRSHGTQKSRKDQIQRLVLSTVVIFLACFLPYHVLLLVRSVWEASCDFAKGVFNAYHFSLLLTSFNCVADPVLYCFVSETTHRDLARLRGACLAFLTCSRTGRAREAYPLGAPEASGKSGAQGEEPELLTKLHPAFQTPNSPGSGGFPTGRLA

How the values were obtained:
[1] = variants of: B1; assay: cAMP reporter score (Enrich2 score, wild type = 0); higher = more signal; HEK293T, FACS bins
[2] = variants of: B1; assay: surface expression score (Enrich2 score, wild type = 0); higher = more signal; HEK293T, FACS bins

Variant	cAMP reporter score ([1]; pH 5.5)	cAMP reporter score ([1]; pH 6, modulator: ogerin)	cAMP reporter score ([1]; pH 6.5, modulator: ogerin)	surface expression score [2]	cAMP reporter score ([1]; pH 6)
MGNITADNSSMSCTIDHTIHQTLAPVVYVTVLVVGFPANCLSLYFGYLQIKARNELGVYLCNLTVADEFYICSLPFWLQYVLQHDNWSHGDLSCQVCGILLYENIYISVGFLCCISVDRYLAVAHPFRFHQFRTLKAAVGVSVVIWAKELLTSIYFLMHEEVIEDENQHRVCFEHYPIQAWQRAINYYRFLVGFLFPICLLLASYQGILRAVRRSHGTQKSRKDQIQRLVLSTVVIFLACFLPYHVLLLVRSVWEASCDFAKGVFNAYHFSLLLTSFNCVADPVLYCFVSETTHRDLARLRGACLAFLTCSRTGRAREAYPLGAPEASGKSGAQGEEPELLTKLHPAFQTPNSPGSGGFPTGRLA [L68E]	-1.21	-1.17	-1.91	-2.96	–
MGNITADNSSMSCTIDHTIHQTLAPVVYVTVLVVGFPANCLSLYFGYLQIKARNELGVYLCNLTVADFFYICSLPFWLQYVLQHDNWSHGDLSCQVCGILLYENIYISVGFLCCISVDRYLAVAHPFRFHQFRTLKAAVGVSVVIWAKELLTSIYFLMHEEVIEDENQHRVCFEHYPIQAWQRAINYYRFLVGFLFPICLLLASYQGILRAVRRSHGTQKSRKDQIQRLVLSTVVIFLACFLPYHVLLLVRSVWEASCDFAKGVFNAYHFSLLLTSFNCVADPVLYCFVSETTHRDLARLRGACLAFLTCSRTGRAREAYPLGAPEASGKSGAQGEEPELLTKLHPAFQTPNSPGSGGFPTGRLA [L68F]	0.906	–	-0.863	0.206	-0.162
MGNITADNSSMSCTIDHTIHQTLAPVVYVTVLVVGFPANCLSLYFGYLQIKARNELGVYLCNLTVADGFYICSLPFWLQYVLQHDNWSHGDLSCQVCGILLYENIYISVGFLCCISVDRYLAVAHPFRFHQFRTLKAAVGVSVVIWAKELLTSIYFLMHEEVIEDENQHRVCFEHYPIQAWQRAINYYRFLVGFLFPICLLLASYQGILRAVRRSHGTQKSRKDQIQRLVLSTVVIFLACFLPYHVLLLVRSVWEASCDFAKGVFNAYHFSLLLTSFNCVADPVLYCFVSETTHRDLARLRGACLAFLTCSRTGRAREAYPLGAPEASGKSGAQGEEPELLTKLHPAFQTPNSPGSGGFPTGRLA [L68G]	-1.69	-0.676	-0.188	-2.08	–
MGNITADNSSMSCTIDHTIHQTLAPVVYVTVLVVGFPANCLSLYFGYLQIKARNELGVYLCNLTVADHFYICSLPFWLQYVLQHDNWSHGDLSCQVCGILLYENIYISVGFLCCISVDRYLAVAHPFRFHQFRTLKAAVGVSVVIWAKELLTSIYFLMHEEVIEDENQHRVCFEHYPIQAWQRAINYYRFLVGFLFPICLLLASYQGILRAVRRSHGTQKSRKDQIQRLVLSTVVIFLACFLPYHVLLLVRSVWEASCDFAKGVFNAYHFSLLLTSFNCVADPVLYCFVSETTHRDLARLRGACLAFLTCSRTGRAREAYPLGAPEASGKSGAQGEEPELLTKLHPAFQTPNSPGSGGFPTGRLA [L68H]	-0.874	-2.09	-0.903	-2.06	-1.7
